# Measurements: the supplement of paper PMC3694890
# ± gives the uncertainty stated by the source. Some of the results follow. A small y stands for phosphotyrosine.
# Molecular target: GRB2 (endogenous complexes from cell lysate), P62993
# Experiment: GRB2 complex binding differential signal (pY peptide minus Ala control peptide) (fluorescence intensity units); higher = stronger GRB2 complex binding
# Settings: MCF7
# Protocol: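 In situ synthesized µParaflo PepArray of 6-mer peptides, each starting with an N-terminal phosphotyrosine (lowercase 'y' = pY) followed by 5 native residues. Peptides are tethered to glass through a long linker. Chips were incubated overnight at 4°C with total cell lysate (1 mg in 1 mL) from MCF10A, MCF7, T47D or MDA-MB-231 cells. Bound endogenous GRB2-containing complexes were detected with rabbit anti-GRB2 and an Alexa647 secondary antibody. Signals are background-subtracted and averaged over replicate spots, then the matched Ala-substituted control peptide signal is subtracted (differential signal).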
# 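Note: phosphopeptide probes on the chip at 1–4 µM, lysate proteins bound in 20 mM Tris pH 7.0 buffer with 140 mM NaCl, 1% Triton X-100 and 5% glycerol.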
row,Binder,GRB2 complex binding differential signal
1,yLNPVE [ERBB4_1162/A1],6520 ± 850
2,yKKTTN [FGFR1_654/A1],322 ± 300
3,yTPMSG [ERBB4_1056/A1],-1660 ± 2100
4,ySSSGL [FER_714/A1],910 ± 630
5,yCYNPS [FGFR1_583/A1],235 ± 360
6,ySYDIN [FGFR2_586/A1],-525 ± 1400
7,yLSEFS [ERBB4_1284/A1],-84.1 ± 270
8,yVQILK [FGFR1_307/A1],5640 ± 660
9,yWTSPE [FGFR1_154/A1],239 ± 650
10,ySHPNI [FES_614/A1],8680 ± 3400
11,yLQEYS [ERBB4_1258/A1],115 ± 250
12,yHNASN [ERBB4_1188/A1],11500 ± 2600
13,yWNHSL [ERBB4_1242/A1],1120 ± 500
14,yDINRV [FGFR2_588/A1],2260 ± 1500
15,yEEMRA [ERBB3_1289/A1],1010 ± 270
16,yYKKTT [FGFR1_653/A1],691 ± 410

# Same assay, conditions: MCF10A
row,Binder,GRB2 complex binding differential signal
1,yLNPVE [ERBB4_1162/A1],4730 ± 1200
2,yKKTTN [FGFR1_654/A1],66.6 ± 190
3,yTPMSG [ERBB4_1056/A1],617 ± 500
4,ySSSGL [FER_714/A1],1080 ± 350
5,yCYNPS [FGFR1_583/A1],-17.4 ± 420
6,ySYDIN [FGFR2_586/A1],-51.9 ± 300
7,yLSEFS [ERBB4_1284/A1],100 ± 250
8,yVQILK [FGFR1_307/A1],1210 ± 220
9,yWTSPE [FGFR1_154/A1],172 ± 200
10,ySHPNI [FES_614/A1],4230 ± 1100
11,yLQEYS [ERBB4_1258/A1],205 ± 140
12,yHNASN [ERBB4_1188/A1],6840 ± 1700
13,yWNHSL [ERBB4_1242/A1],374 ± 180
14,yDINRV [FGFR2_588/A1],231 ± 370
15,yEEMRA [ERBB3_1289/A1],689 ± 310
16,yYKKTT [FGFR1_653/A1],407 ± 700

# Same assay, conditions: MDA-MB-231
row,Binder,GRB2 complex binding differential signal
1,yLNPVE [ERBB4_1162/A1],3420 ± 990
2,yKKTTN [FGFR1_654/A1],553 ± 330
3,yTPMSG [ERBB4_1056/A1],307 ± 300
4,ySSSGL [FER_714/A1],879 ± 350
5,yCYNPS [FGFR1_583/A1],335 ± 270
6,ySYDIN [FGFR2_586/A1],642 ± 350
7,yLSEFS [ERBB4_1284/A1],464 ± 350
8,yVQILK [FGFR1_307/A1],2310 ± 620
9,yWTSPE [FGFR1_154/A1],357 ± 260
10,ySHPNI [FES_614/A1],2470 ± 560
11,yLQEYS [ERBB4_1258/A1],824 ± 370
12,yHNASN [ERBB4_1188/A1],1620 ± 530
13,yWNHSL [ERBB4_1242/A1],534 ± 330
14,yDINRV [FGFR2_588/A1],587 ± 550
15,yEEMRA [ERBB3_1289/A1],1150 ± 360
16,yYKKTT [FGFR1_653/A1],566 ± 450

# Same assay, conditions: T47D
row,Binder,GRB2 complex binding differential signal
1,yLNPVE [ERBB4_1162/A1],7070 ± 2000
2,yKKTTN [FGFR1_654/A1],1130 ± 1400
3,yTPMSG [ERBB4_1056/A1],1270 ± 1400
4,ySSSGL [FER_714/A1],1550 ± 1100
5,yCYNPS [FGFR1_583/A1],569 ± 1200
6,ySYDIN [FGFR2_586/A1],585 ± 910
7,yLSEFS [ERBB4_1284/A1],26.1 ± 1300
8,yVQILK [FGFR1_307/A1],5430 ± 1300
9,yWTSPE [FGFR1_154/A1],666 ± 2000
10,ySHPNI [FES_614/A1],3060 ± 1300
11,yLQEYS [ERBB4_1258/A1],531 ± 2100
12,yHNASN [ERBB4_1188/A1],6720 ± 1900
13,yWNHSL [ERBB4_1242/A1],3140 ± 1200
14,yDINRV [FGFR2_588/A1],362 ± 1700
15,yEEMRA [ERBB3_1289/A1],1590 ± 1600
16,yYKKTT [FGFR1_653/A1],919 ± 1000
